Assay results taken from the supplement of paper PMC10126150.
Values marked as one replicate rest on one cluster of the flow cell; about a third of the high ones do not repeat.
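Note: ATP exposure 15 min at 22 °C before imaging.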

These sequences were tested on ATP (assay: switch fluorescence ratio, 500 uM ATP over buffer (Cy3 cluster intensity, sum of 5 cycles each) (fold (ratio)); higher = stronger signal-on switching upon ATP binding; sequences stand for … in TCGTCGGCAGCGTCAGATGTGTATAAGAGACAGTTTTTTTTTTTTTTTTTTTTTTTTT…TC). Settings: aptamer strand: ATP DNA aptamer (quencher-CACCTGGGGGAGTATTGCGGAGGAAGG + anchor), 100 nM annealed; ATP concentration: 500 uM; one replicate.
Outline: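 Clusters carrying Cy3-labelled switching strands on a modified Illumina MiSeq flow-cell were annealed to 100 nM quencher-labelled ATP aptamer and imaged in selection buffer. They were imaged again after 15 min with 500 uM ATP at 22 °C, over five buffer/ATP cycles with NaOH stripping and re-annealing in between. For each cluster, the fluorescence ratio is the summed Cy3 intensity of the target cycles divided by that of the buffer cycles, averaged per switch-domain sequence. Clusters outside 100-1000 RFU were left out.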
For TACCAGAGGT, the switch fluorescence ratio was 0.985.
Work on TACCAGTAA yielded a switch fluorescence ratio of 1.03.
TACCCATAAC showed a switch fluorescence ratio of 1.11.
In the case of TACCCGGCGT, the switch fluorescence ratio is reported as 0.996.
In the case of TACCCTCTT, the switch fluorescence ratio is reported as 0.985.
TACCGAGTTC gave a switch fluorescence ratio of 1.03.
TACCGATCTC showed a switch fluorescence ratio of 1.25.
Sequence TACCGGGTAC has a switch fluorescence ratio of 1.16.
With TACCGTAGGT the switch fluorescence ratio was 0.976.
TACCGTCAGG showed a switch fluorescence ratio of 0.979.
TACCGTTCCT showed a switch fluorescence ratio of 1.04.
Work on TACCGTTGAA yielded a switch fluorescence ratio of 0.989.
For TACCTAACC, the switch fluorescence ratio was 1.34.
In the case of TACCTAGATC, the switch fluorescence ratio is reported as 1.04.
Sequence TACCTCCGTC has a switch fluorescence ratio of 2.06.
Work on TACCTGAACC yielded a switch fluorescence ratio of 1.19.
TACCTGATTA gave a switch fluorescence ratio of 1.04.
In the case of TACGAAACAC, the switch fluorescence ratio is reported as 1.35.
For TACGAAGCGT, the switch fluorescence ratio was 1.24.
Sequence TACGAAGGG has a switch fluorescence ratio of 0.965.
TACGAAGTT gave a switch fluorescence ratio of 1.
Work on TACGAATGGC yielded a switch fluorescence ratio of 1.09.
Work on TACGACCCAT yielded a switch fluorescence ratio of 1.45.
TACGACTTAG was tested, and the switch fluorescence ratio was 1.02.
For TACGATATGT, the switch fluorescence ratio was 1.21.
Work on TACGATCAGA yielded a switch fluorescence ratio of 1.02.
With TACGATCAGT the switch fluorescence ratio was 1.03.
Work on TACGATCATC yielded a switch fluorescence ratio of 1.02.
Sequence TACGATCGTA has a switch fluorescence ratio of 1.02.
With TACGATTGAA the switch fluorescence ratio was 0.995.
TACGATTTAG showed a switch fluorescence ratio of 1.04.
Work on TACGCATTAT yielded a switch fluorescence ratio of 2.38.
For TACGCCGACG, the switch fluorescence ratio was 1.14.
TACGCGATTG showed a switch fluorescence ratio of 1.1.
TACGCTCCCC was tested, and the switch fluorescence ratio was 2.22.
For TACGCTTCGG, the switch fluorescence ratio was 0.979.
With TACGCTTTGC the switch fluorescence ratio was 1.19.
Sequence TACGGACAGG has a switch fluorescence ratio of 1.36.
TACGGATGT gave a switch fluorescence ratio of 1.04.
For TACGGGACCA, the switch fluorescence ratio was 1.24.
TACGGGTCAA was tested, and the switch fluorescence ratio was 1.03.
In the case of TACGGGTGGA, the switch fluorescence ratio is reported as 0.98.
In the case of TACGGTATCT, the switch fluorescence ratio is reported as 1.15.
Work on TACGGTGATA yielded a switch fluorescence ratio of 0.995.
Work on TACGGTTACG yielded a switch fluorescence ratio of 1.4.
Work on TACGGTTATT yielded a switch fluorescence ratio of 0.998.
Sequence TACGGTTGCT has a switch fluorescence ratio of 1.01.
With TACGTAATCC the switch fluorescence ratio was 1.51.
For TACGTAATTC, the switch fluorescence ratio was 1.8.
TACGTCGCAT showed a switch fluorescence ratio of 1.46.
TACGTCTTAC showed a switch fluorescence ratio of 1.27.
For TACGTGTCGC, the switch fluorescence ratio was 1.02.
Sequence TACGTGTGTG has a switch fluorescence ratio of 0.971.
TACGTTAGGG showed a switch fluorescence ratio of 1.08.
TACGTTGGTA showed a switch fluorescence ratio of 0.964.
In the case of TACGTTGTAG, the switch fluorescence ratio is reported as 1.
In the case of TACGTTTCTA, the switch fluorescence ratio is reported as 1.01.
For TACTACCTAA, the switch fluorescence ratio was 1.12.
TACTACGCCC was tested, and the switch fluorescence ratio was 3.06.
Work on TACTAGAAAG yielded a switch fluorescence ratio of 1.06.
With TACTAGCATT the switch fluorescence ratio was 1.05.
For TACTAGTGGC, the switch fluorescence ratio was 1.08.
TACTCAGATC was tested, and the switch fluorescence ratio was 1.02.
TACTCAGCTA showed a switch fluorescence ratio of 2.15.
Sequence TACTCAGCTT has a switch fluorescence ratio of 1.41.
For TACTCATAAT, the switch fluorescence ratio was 1.04.
In the case of TACTCCGGGG, the switch fluorescence ratio is reported as 1.31.
TACTCCTAAA was tested, and the switch fluorescence ratio was 1.3.
With TACTCGGGTG the switch fluorescence ratio was 1.18.
Sequence TACTCGTTT has a switch fluorescence ratio of 0.982.
TACTCTAAA was tested, and the switch fluorescence ratio was 1.13.
For TACTCTAATG, the switch fluorescence ratio was 1.08.
TACTGAAGCC showed a switch fluorescence ratio of 1.08.
With TACTGAATTC the switch fluorescence ratio was 1.06.
For TACTGCATAT, the switch fluorescence ratio was 1.18.
With TACTGCCCGG the switch fluorescence ratio was 0.948.
With TACTGGGTCA the switch fluorescence ratio was 0.993.
With TACTGGTAGT the switch fluorescence ratio was 1.03.
In the case of TACTTCGCCA, the switch fluorescence ratio is reported as 2.42.
In the case of TACTTCTTGA, the switch fluorescence ratio is reported as 0.996.
With TACTTGCGGT the switch fluorescence ratio was 1.01.
With TACTTGTGAG the switch fluorescence ratio was 0.993.
With TAGAAAACGC the switch fluorescence ratio was 0.989.
In the case of TAGAAACCAT, the switch fluorescence ratio is reported as 1.08.
TAGAAATCTT was tested, and the switch fluorescence ratio was 1.01.
TAGAACGAGC showed a switch fluorescence ratio of 1.07.
With TAGAACGATT the switch fluorescence ratio was 0.998.
For TAGAAGCA, the switch fluorescence ratio was 1.14.
In the case of TAGAAGTCA, the switch fluorescence ratio is reported as 1.01.
TAGAATAGC gave a switch fluorescence ratio of 0.999.
Work on TAGAATGAGT yielded a switch fluorescence ratio of 1.05.
TAGACAACAG showed a switch fluorescence ratio of 1.08.
Work on TAGACAGGAG yielded a switch fluorescence ratio of 1.01.
TAGACATAGT was tested, and the switch fluorescence ratio was 0.954.
With TAGACATGTA the switch fluorescence ratio was 1.02.
In the case of TAGAGAACAA, the switch fluorescence ratio is reported as 1.05.
Sequence TAGAGAAGCT has a switch fluorescence ratio of 1.06.
Sequence TAGAGCCGA has a switch fluorescence ratio of 1.01.
TAGAGGACAA was tested, and the switch fluorescence ratio was 0.991.
Sequence TAGAGGCGTG has a switch fluorescence ratio of 1.1.
TAGAGGGATA showed a switch fluorescence ratio of 1.01.
TAGAGGGTTA was tested, and the switch fluorescence ratio was 1.01.
Sequence TAGAGTAAAT has a switch fluorescence ratio of 1.03.
Work on TAGATAGTAC yielded a switch fluorescence ratio of 0.995.
Sequence TAGATATCCT has a switch fluorescence ratio of 1.04.
Work on TAGATATTAT yielded a switch fluorescence ratio of 1.02.
With TAGATATTT the switch fluorescence ratio was 0.921.
TAGATCCGCG gave a switch fluorescence ratio of 1.07.
Work on TAGATCGCAA yielded a switch fluorescence ratio of 1.84.
In the case of TAGATCTGTT, the switch fluorescence ratio is reported as 0.98.
For TAGATTACAT, the switch fluorescence ratio was 1.01.
TAGATTAGGG gave a switch fluorescence ratio of 0.986.
TAGCAAAGG showed a switch fluorescence ratio of 1.12.
Sequence TAGCAAAGTA has a switch fluorescence ratio of 0.975.
Sequence TAGCAACGTC has a switch fluorescence ratio of 0.895.
TAGCAATATT showed a switch fluorescence ratio of 4.61.
In the case of TAGCAATGGA, the switch fluorescence ratio is reported as 1.36.
TAGCAGGGA gave a switch fluorescence ratio of 1.04.
Sequence TAGCAGTCAG has a switch fluorescence ratio of 1.02.
With TAGCCATAAA the switch fluorescence ratio was 0.981.
TAGCCCCGGA gave a switch fluorescence ratio of 1.02.
In the case of TAGCCCGGGC, the switch fluorescence ratio is reported as 0.973.
Work on TAGCCCGGTT yielded a switch fluorescence ratio of 1.02.
With TAGCCCTAAT the switch fluorescence ratio was 0.99.
TAGCCTTGGG gave a switch fluorescence ratio of 1.01.
In the case of TAGCGAAAAC, the switch fluorescence ratio is reported as 1.13.
With TAGCGAACGC the switch fluorescence ratio was 1.01.
TAGCGATCCA was tested, and the switch fluorescence ratio was 1.01.
With TAGCGCATTA the switch fluorescence ratio was 1.15.
Work on TAGCGCCTTT yielded a switch fluorescence ratio of 0.986.
Sequence TAGCGGCCG has a switch fluorescence ratio of 1.03.
TAGCGGCTTG gave a switch fluorescence ratio of 0.979.
In the case of TAGCGTGATA, the switch fluorescence ratio is reported as 1.01.
TAGCGTGCAT showed a switch fluorescence ratio of 1.03.
For TAGCGTGTGT, the switch fluorescence ratio was 1.02.
TAGCTAGGAA was tested, and the switch fluorescence ratio was 0.946.
Work on TAGCTCAGGT yielded a switch fluorescence ratio of 1.07.
Sequence TAGCTCGCCA has a switch fluorescence ratio of 0.999.
TAGCTGGTGG showed a switch fluorescence ratio of 0.907.
With TAGCTTTTCC the switch fluorescence ratio was 1.11.
TAGGAAAACG showed a switch fluorescence ratio of 1.05.
TAGGAACTTG was tested, and the switch fluorescence ratio was 1.02.
In the case of TAGGAAGTAA, the switch fluorescence ratio is reported as 1.02.
TAGGAAGTTT was tested, and the switch fluorescence ratio was 0.991.
In the case of TAGGACGATC, the switch fluorescence ratio is reported as 1.02.
TAGGAGATGC showed a switch fluorescence ratio of 0.98.
TAGGAGCGCC showed a switch fluorescence ratio of 1.03.
TAGGAGGAGA gave a switch fluorescence ratio of 1.01.
TAGGAGGCA was tested, and the switch fluorescence ratio was 1.02.
TAGGAGGCCA showed a switch fluorescence ratio of 0.944.
With TAGGAGTTCC the switch fluorescence ratio was 1.02.
In the case of TAGGATTATT, the switch fluorescence ratio is reported as 1.13.
In the case of TAGGATTCCC, the switch fluorescence ratio is reported as 0.949.
